Assay results from the supplement of paper PMC11876631.
± gives the standard deviation of the averaged measurements. Laboratory Escherichia coli strains with one amino-acid change in an essential protein, pooled on minimal glucose agar with carbenicillin or gentamicin at twice the control MIC (plus kanamycin and chloramphenicol for the plasmids), 48 h. Fold change of barcode share against drug-free plates; higher = less susceptible. Active = above 20 in both replicates (the paper's putatively resistant). '<' = one read or none on drug, '>' = one read or none on a drug-free plate. Shares are relative, so most strains fall below 1 when a few take over. Listed are strains with at least 15 reads on both drug-free plates, and hits; most hits rest on fewer reference reads. Replicate rank correlation about 0.5. Edits are read from barcodes.

B1: pyrE V17Q (protein)
chain: MKPYQRQFIEFALSKQQLKFGEFTLKSGRKSPYFFNAGLFNTGRDLALLGRFYAEALVDSGIEFDLLFGPAYKGIPIATTTAVALAEHHDLDLPYCFNRKEAKDHGEGGNLVGSALQGRVMLVDDVITAGTAIRESMEIIQANGATLAGVLISLDRQERGRGEISAIQEVERDYNCKVISIITLKDLIAYLEEKPEMAEHLAAVKAYREEFGV
B2: pyrE L49A (protein)
chain: MKPYQRQFIEFALSKQVLKFGEFTLKSGRKSPYFFNAGLFNTGRDLALAGRFYAEALVDSGIEFDLLFGPAYKGIPIATTTAVALAEHHDLDLPYCFNRKEAKDHGEGGNLVGSALQGRVMLVDDVITAGTAIRESMEIIQANGATLAGVLISLDRQERGRGEISAIQEVERDYNCKVISIITLKDLIAYLEEKPEMAEHLAAVKAYREEFGV
B3: pyrE F8W (protein)
chain: MKPYQRQWIEFALSKQVLKFGEFTLKSGRKSPYFFNAGLFNTGRDLALLGRFYAEALVDSGIEFDLLFGPAYKGIPIATTTAVALAEHHDLDLPYCFNRKEAKDHGEGGNLVGSALQGRVMLVDDVITAGTAIRESMEIIQANGATLAGVLISLDRQERGRGEISAIQEVERDYNCKVISIITLKDLIAYLEEKPEMAEHLAAVKAYREEFGV
B4: pyrE L49Q (protein)
chain: MKPYQRQFIEFALSKQVLKFGEFTLKSGRKSPYFFNAGLFNTGRDLALQGRFYAEALVDSGIEFDLLFGPAYKGIPIATTTAVALAEHHDLDLPYCFNRKEAKDHGEGGNLVGSALQGRVMLVDDVITAGTAIRESMEIIQANGATLAGVLISLDRQERGRGEISAIQEVERDYNCKVISIITLKDLIAYLEEKPEMAEHLAAVKAYREEFGV
B5: pyrE I181A (protein)
chain: MKPYQRQFIEFALSKQVLKFGEFTLKSGRKSPYFFNAGLFNTGRDLALLGRFYAEALVDSGIEFDLLFGPAYKGIPIATTTAVALAEHHDLDLPYCFNRKEAKDHGEGGNLVGSALQGRVMLVDDVITAGTAIRESMEIIQANGATLAGVLISLDRQERGRGEISAIQEVERDYNCKVISAITLKDLIAYLEEKPEMAEHLAAVKAYREEFGV
B6: pyrE L187A (protein)
chain: MKPYQRQFIEFALSKQVLKFGEFTLKSGRKSPYFFNAGLFNTGRDLALLGRFYAEALVDSGIEFDLLFGPAYKGIPIATTTAVALAEHHDLDLPYCFNRKEAKDHGEGGNLVGSALQGRVMLVDDVITAGTAIRESMEIIQANGATLAGVLISLDRQERGRGEISAIQEVERDYNCKVISIITLKDAIAYLEEKPEMAEHLAAVKAYREEFGV
B7: pyrE V123D (protein)
chain: MKPYQRQFIEFALSKQVLKFGEFTLKSGRKSPYFFNAGLFNTGRDLALLGRFYAEALVDSGIEFDLLFGPAYKGIPIATTTAVALAEHHDLDLPYCFNRKEAKDHGEGGNLVGSALQGRVMLDDDVITAGTAIRESMEIIQANGATLAGVLISLDRQERGRGEISAIQEVERDYNCKVISIITLKDLIAYLEEKPEMAEHLAAVKAYREEFGV
B8: pyrE L187W (protein)
chain: MKPYQRQFIEFALSKQVLKFGEFTLKSGRKSPYFFNAGLFNTGRDLALLGRFYAEALVDSGIEFDLLFGPAYKGIPIATTTAVALAEHHDLDLPYCFNRKEAKDHGEGGNLVGSALQGRVMLVDDVITAGTAIRESMEIIQANGATLAGVLISLDRQERGRGEISAIQEVERDYNCKVISIITLKDWIAYLEEKPEMAEHLAAVKAYREEFGV
B9: pyrE F8A (protein)
chain: MKPYQRQAIEFALSKQVLKFGEFTLKSGRKSPYFFNAGLFNTGRDLALLGRFYAEALVDSGIEFDLLFGPAYKGIPIATTTAVALAEHHDLDLPYCFNRKEAKDHGEGGNLVGSALQGRVMLVDDVITAGTAIRESMEIIQANGATLAGVLISLDRQERGRGEISAIQEVERDYNCKVISIITLKDLIAYLEEKPEMAEHLAAVKAYREEFGV
B10: pyrE L187Q (protein)
chain: MKPYQRQFIEFALSKQVLKFGEFTLKSGRKSPYFFNAGLFNTGRDLALLGRFYAEALVDSGIEFDLLFGPAYKGIPIATTTAVALAEHHDLDLPYCFNRKEAKDHGEGGNLVGSALQGRVMLVDDVITAGTAIRESMEIIQANGATLAGVLISLDRQERGRGEISAIQEVERDYNCKVISIITLKDQIAYLEEKPEMAEHLAAVKAYREEFGV
B11: pyrF V18A (protein)
chain: MTLTASSSSRAVTNSPVAVALDYHNRDDALAFVDKIDPRDCRLKVGKEMFTLFGPQFVRELQQRGFDIFLDLKFHDIPNTAAHAVAAAADLGVWMVNVHASGGARMMTAAREALVPFGKDAPLLIAVTVLTSMEASDLVDLGMTLSPADYAERLAALTQKCGLDGVVCSAQEAVRFKQVFGQEFKLVTPGIRPQGSEAGDQRRIMTPEQALSAGVDYMVIGRPVTQSVDPAQTLKAINASLQRSA
B12: pyrF V18Q (protein)
chain: MTLTASSSSRAVTNSPVQVALDYHNRDDALAFVDKIDPRDCRLKVGKEMFTLFGPQFVRELQQRGFDIFLDLKFHDIPNTAAHAVAAAADLGVWMVNVHASGGARMMTAAREALVPFGKDAPLLIAVTVLTSMEASDLVDLGMTLSPADYAERLAALTQKCGLDGVVCSAQEAVRFKQVFGQEFKLVTPGIRPQGSEAGDQRRIMTPEQALSAGVDYMVIGRPVTQSVDPAQTLKAINASLQRSA
B13: pyrF V19Q (protein)
chain: MTLTASSSSRAVTNSPVVQALDYHNRDDALAFVDKIDPRDCRLKVGKEMFTLFGPQFVRELQQRGFDIFLDLKFHDIPNTAAHAVAAAADLGVWMVNVHASGGARMMTAAREALVPFGKDAPLLIAVTVLTSMEASDLVDLGMTLSPADYAERLAALTQKCGLDGVVCSAQEAVRFKQVFGQEFKLVTPGIRPQGSEAGDQRRIMTPEQALSAGVDYMVIGRPVTQSVDPAQTLKAINASLQRSA
B14: pyrF M95A (protein)
chain: MTLTASSSSRAVTNSPVVVALDYHNRDDALAFVDKIDPRDCRLKVGKEMFTLFGPQFVRELQQRGFDIFLDLKFHDIPNTAAHAVAAAADLGVWAVNVHASGGARMMTAAREALVPFGKDAPLLIAVTVLTSMEASDLVDLGMTLSPADYAERLAALTQKCGLDGVVCSAQEAVRFKQVFGQEFKLVTPGIRPQGSEAGDQRRIMTPEQALSAGVDYMVIGRPVTQSVDPAQTLKAINASLQRSA
B15: pyrF V19A (protein)
chain: MTLTASSSSRAVTNSPVVAALDYHNRDDALAFVDKIDPRDCRLKVGKEMFTLFGPQFVRELQQRGFDIFLDLKFHDIPNTAAHAVAAAADLGVWMVNVHASGGARMMTAAREALVPFGKDAPLLIAVTVLTSMEASDLVDLGMTLSPADYAERLAALTQKCGLDGVVCSAQEAVRFKQVFGQEFKLVTPGIRPQGSEAGDQRRIMTPEQALSAGVDYMVIGRPVTQSVDPAQTLKAINASLQRSA
B16: pyrF L154A (protein)
chain: MTLTASSSSRAVTNSPVVVALDYHNRDDALAFVDKIDPRDCRLKVGKEMFTLFGPQFVRELQQRGFDIFLDLKFHDIPNTAAHAVAAAADLGVWMVNVHASGGARMMTAAREALVPFGKDAPLLIAVTVLTSMEASDLVDLGMTLSPADYAERAAALTQKCGLDGVVCSAQEAVRFKQVFGQEFKLVTPGIRPQGSEAGDQRRIMTPEQALSAGVDYMVIGRPVTQSVDPAQTLKAINASLQRSA
B17: pyrF V19W (protein)
chain: MTLTASSSSRAVTNSPVVWALDYHNRDDALAFVDKIDPRDCRLKVGKEMFTLFGPQFVRELQQRGFDIFLDLKFHDIPNTAAHAVAAAADLGVWMVNVHASGGARMMTAAREALVPFGKDAPLLIAVTVLTSMEASDLVDLGMTLSPADYAERLAALTQKCGLDGVVCSAQEAVRFKQVFGQEFKLVTPGIRPQGSEAGDQRRIMTPEQALSAGVDYMVIGRPVTQSVDPAQTLKAINASLQRSA
B18: pyrF L154W (protein)
chain: MTLTASSSSRAVTNSPVVVALDYHNRDDALAFVDKIDPRDCRLKVGKEMFTLFGPQFVRELQQRGFDIFLDLKFHDIPNTAAHAVAAAADLGVWMVNVHASGGARMMTAAREALVPFGKDAPLLIAVTVLTSMEASDLVDLGMTLSPADYAERWAALTQKCGLDGVVCSAQEAVRFKQVFGQEFKLVTPGIRPQGSEAGDQRRIMTPEQALSAGVDYMVIGRPVTQSVDPAQTLKAINASLQRSA

molecular target: Escherichia coli (laboratory strain); assay: barcode share on antibiotic plates over drug-free plates; higher = less susceptible; conditions: antibiotic: carbenicillin; 2× MIC (3.1 µg/mL)
Method: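 A pool of E. coli strains, each edited to carry one amino-acid change in an essential protein, was grown for 48 h on minimal glucose agar with or without antibiotic; strain barcodes were sequenced; mean of two replicates.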

Protein | fold change of barcode share
B1 | 0.437 ± 0.17
B2 | 0.271 ± 0.045
B3 | 0.397 ± 0.078
B4 | 0.149 ± 0.0047
B5 | 0.418 ± 0.2
B6 | 0.986 ± 0.069
B7 | 0.35 ± 0.41
B8 | > 23.6 [active]
B9 | 0.21 ± 0.044
B10 | 0.66 ± 0.11
B11 | 0.373 ± 0.053
B12 | 0.865 ± 0.13
B13 | 0.54 ± 0.15
B14 | 1.37 ± 0.48
B15 | 0.409 ± 0.15
B16 | 1.01 ± 0.24
B17 | 0.816 ± 0.23
B18 | 0.678 ± 0.28

same assay, conditions: antibiotic: gentamicin; 2× MIC (MIC 0.45 µg/mL)

Protein | fold change of barcode share
B1 | < 0.0147
B2 | 0.163 ± 0.23
B3 | < 0.0118
B4 | 0.0289 ± 0.035
B5 | < 0.013
B6 | 0.0205 ± 0.02
B9 | < 0.00983
B10 | 0.0241 ± 0.01
B11 | < 0.0107
B12 | 0.0175 ± 0.012
B13 | 0.0194 ± 0.013
B14 | 0.0192 ± 0.0032
B15 | < 0.0146
B16 | 0.0119 ± 0.00094
B18 | 0.713 ± 0.63
